Data on 19 variants can be found in the RNAGym collection of RNA variant scans (doi:10.1073/pnas.2313332121).

Variants at the background level are over-represented here.

B1: TPR 5TU (parent)
chain: GGAUCUUCUCGAUCUAACAAAAAAGACAAAUCUGCCACAAAGCUUGAGAGCAUCUUCGGAUGCAGAGGCGGCAGCCUUCGGUGGCGCGAUAGCGCCAACGUUCUCAACUAUGACACGCAAAACGCGUGCUCCGUUGAAUGGAGUUUAUCAUG

The data set covers variants of B1. The data set is described as follows: polymerase ribozyme fitness, log enrichment relative to wild type (log ratio); higher = more active; in vitro selection for triplet polymerase activity. In short, it runs like this:
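Each subunit of a heterodimeric triplet polymerase ribozyme was mutagenized into a library by PCR, transcribed, and subjected to one round of in vitro selection, run in triplicate. Libraries were annealed with a biotinylated primer, the partner subunit and triplets, incubated frozen at −7 °C, and extended constructs were gel-excised, captured on streptavidin beads and recovered by RT-PCR. Input and output libraries were sequenced on Illumina, keeping genotypes with ≥10 input reads and ≥1 read per output. Fitness is log base 2 of genotype enrichment divided by wild-type enrichment, from inverse-variance-weighted replicate averages.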
With GGAUCUUCUCGAUCUAACAAAAAAGACAAAUCUGCCACAAAGCUUGAGAGCAUCUUCGAAUGCAGAGGCGGCAGCCUUCGGUGGCGCGAUAGCGCCAACGUUCUCAACUAUGACACGCAAAACGCGUGCUCCGUUGAAUGGAGUUUAUAAUG, the “polymerase ribozyme fitness (log ratio)” value was -3.65.

For the variant GGAUCUUCUCGAUCUAACAAAAAAGACAAAUCUGCCACAAAGCUUGAGAGCAUCUUCUGAUGCAGAGGCGGCAGCCUUCGGUGGCGCGAUAGCGCCAACGUUCUCAACUAUGACACGCAAAACGCGUGCUCCGUCGAAUGGAGUUUAUCAUG, the “polymerase ribozyme fitness (log ratio)” value was -1.62.

GGAUCUUCUCGAUCUAACAAAAAAGACAAAUCUGCCACAAAGCUUGAGAGCAUCUUCGACGGCAGAGGCGGCCGCCUUCGGUGGCGCGAUAGAGCCAACGUUCUCAACGAUGACACGCAAAACGCGUGCUCCGUUGAAUGGACUUUAUCAUG: the “polymerase ribozyme fitness (log ratio)” value is not above -4.2.

Turning to GGAUCUUCUCGAUCUAACAAAAAAGACAAAUCUGCCACAAAGCUUGAGAGCAUCUUCCGAAGCAGAGGCGGCAGCCUUCGGUGGCGCGAUAGCGCCAACGUUCUCAACUAUGACACGCAAAACGCGUGCUCCUUUGAAUGGAGUUUGUCAUG, the “polymerase ribozyme fitness (log ratio)” value is not above -4.2.

Turning to GGAUCUUCUCGAUCUAACAAAAAAGACAAAUCUGCCACAAAGCUUGAGAGCAUCUUCUGAUGCAGAGGCGGCAGCCUUCGGUGGCGCGAUAGCGCCAACGUUCUCAACUAUGACACGCAAAACGCGUGCUCCGUUGAAUGGAGUUUAUCAUG, the “polymerase ribozyme fitness (log ratio)” value was -0.0298.

GGAUCUUCUCGAUCUAACAAAAAAGACAAAUCUGCCACAAAGCUUGAGAGCAUCUUCCGAAGCAGGGGCGGCAGCCUUCGGUGGCGCGAUAGCGCCAACGUUCUCAACUAUGACACGCAAAACGCGUGCUCCGUUGAAUGGAGUUUAUCAUG: the “polymerase ribozyme fitness (log ratio)” value was not above -4.2.

With GGAUCUUCUCGAUCUAACAAAAAAGACAAAUCUGCCACAAAGCUUGAGAGCAUCUUCUGAUGCAGAGGGGGCAGCCUUCGGUGGCGGGAUAGCGCCAACGUUCUCAACUAUGACACGCAAAACGCGUGCUCCGUUGAAUGGAGUUUAUCAUG, the “polymerase ribozyme fitness (log ratio)” value is not above -4.2.

As to GGAUCUUCUCGAUCUAACAAAAAAGACAAAUCUGCCACAAAGCUUGAGAGCAUCUUCGAAUGCAGAGGCGGCAGCCUUCGGUGGCGCGAUAGUGCCAUCGUUCUCAACUAUGACACGCAAAACGCGUGCUCCGUUGACUGGAGUUUAUCAUG, the “polymerase ribozyme fitness (log ratio)” value was not above -4.2.

Regarding GGAUCUUCUCGAUCUAACAAAAAAGACAAAUCUGCCACAAAGCUUGAGAGCAUCUUCUGAUGCAGAGGCGGCAGCCUUCGGUGGCGCGAUAGCGCCAACGUUCUCAACUAUGACACGCAAAACGCGUGCUCGGUUGAAUGGAGUUUAUCAUG, the “polymerase ribozyme fitness (log ratio)” value was -2.82.

Turning to GGAUCUUCUCGAUCUAACAAAAAAGACAAAUCUGCCACAAAGCUUGAGAGCAUCUUCCGAGGCAGUGGCGGCAGCCUUCGGUGGCGCGAUAGCGCCAACGUUCUCAACUAUGACACGCAAAACGCGUGCUCCGUUGAAUGGAGGUUAUCAUG, the “polymerase ribozyme fitness (log ratio)” value is not above -4.2.

Take GGAUCUUCUCGAUCUAACAAAAAAGACAAAUCUGCCACAAAGCUUGAGAGCAUCUUCGAAUGCAGAGGCGGCAGCCUUCGGUGGUGCGAUAGCGCCAACGUGCUCCACUAUGACACGCAAAACGCGUGCUCCGUUGAAUGAAGUUUAUCAUG: the “polymerase ribozyme fitness (log ratio)” value was not above -4.2.

Regarding GGAUCUUCUCGAUCUAACAAAAAAGACAAAUCUGCCACAAAGCUUGAGAGCAUCUUCUGAUGCAGAGGCGGCAGCCUGUAGUGGUGCGAUAGCGCUAACGUUCUCGACUAUGACACGCAAAACGCGUGCUCCGUUGAAUGGAGUUUCUCAUG, the “polymerase ribozyme fitness (log ratio)” value is not above -4.2.

Consider GGAUCUUCUCGAUCUAACAAAAAAGACAAAUCUGCCACAAAGCUUGAGAGCAUCUUCUGAUGCAGAGGCGGCAGCCUUCGGUGGCGAGAUAGCGCCAACGUUCUCAACCAUGACACGCAAAACGCGUGCUCCGUUGAAUGGAGUUUACCAUG, for which the “polymerase ribozyme fitness (log ratio)” value was not above -4.2.

Regarding GGAUCUUCUCGAUCUAACAAAAAAGACAAAUCUGCCACAAAGCUUGAGAGCAUCUUCUGAUUCAGAGGCGGCAGCCUUCGGUGGCGCGAUAGCGCCAAUGUUCUCAACUAUGACACGUAAAACGCGUGCUCCGCUGAAUGGAGUUUAUCAUG, the “polymerase ribozyme fitness (log ratio)” value was not above -4.2.

GGAUCUUCUCGAUCUAACAAAAAAGACAAAUCUGCCACAAAGCUUGAGAGCAUCUUCUGAUGCAGAGGCGGCAGCCUUCGGUGGCCCGAUAGCGCCAACGUUCUCAACUAUGACACGCAAAACGCGUGCUCCGUUGAAUGGAGUUUAUCAUG: the “polymerase ribozyme fitness (log ratio)” value is -1.98.

For GGAUCUUCUCGAUCUAACAAAAAAGACAAAUCUGCCACAAAGCUUGAGAGCAUCUUCUGAUGCAGAGGCGGCAGCCUUCGGUUGGGCGACAGCGCCAACGUUCUCAACUAUGACACGCAAAACGCGUGCUCUGUUGAAUGGAGUUUAUCAUG, the “polymerase ribozyme fitness (log ratio)” value is not above -4.2.

As to GGAUCUUCUCGAUCUAACAAAAAAGACAAAUCUGCCACAAAGCUUGAGAGCAUCUUCUGAUGCAGAGGCGGCAGCCUUAGGUGGCGCGAUAGCGCCAACGUUCUCAACUAUGACACGCAAAACGCGUGCUCCGUUGAAUGGAGUUUAUCAUG, the “polymerase ribozyme fitness (log ratio)” value was not above -4.2.

Turning to GGAUCUUCUCGAUCUAACAAAAAAGACAAAUCUGCCACAAAGCUUGAGAGCAUCUUCUGAUGCAGAGGCGGCAGCCUUCGGAGUCGCGAUAGCGCCAACGUUCUCAACUAUGACACGCAAAACGCGUGCUCCGUUGAAUGGAGUUUAUCAUG, the “polymerase ribozyme fitness (log ratio)” value was -0.648.

Consider GGAUCUUCUCGAUCUAACAAAAAAGACAAAUCUGCCACAAAGCUUGAGAGCAUCUUCGAAUGCAGAGGCGGCAGCCUUCGGUGGCGCGAUAGCGCAAACGUUCUCAACUAUGACACUCAAAACGCGUGCUCCGUUGAAUGGAGUUUAUCAUG, for which the “polymerase ribozyme fitness (log ratio)” value was -0.271.
